Measured values as given in ChEMBL document CHEMBL1201862, “PubChem BioAssay data set” (2004).

System: NCI-H322M
Assay: inhibition of tumour cell growth, NCI panel, 48 h

Compound	GI50
COc1cc2c(oc(=O)c3cc(C)cc(OC)c32)c2c(C3OC(C)C(O)C(C)(O)C3O)ccc(O)c12 (centres undefined)	active: 0.493 µM
COC(=O)c1c(C)cccc1C1CN=NC12Cc1ccccc1C2=O (centres undefined)	inactive: > 100 µM
COc1cc(NS(=O)(=O)c2ccc(C)cc2)c2nccnc2c1	inactive: 58.5 µM
COC(=O)C1C2CC3C(OC(=O)C31)C2OC(=O)[C@](OC)(c1ccccc1)C(F)(F)F (some centres undefined)	inactive: > 100 µM
COC1=CC(=Nc2c(Cl)cc(Cl)cc2OC(=O)c2ccc([N+](=O)[O-])cc2)C=C(OC)C1=O	inactive: 17.2 µM
CCCCCCCCCCCCCC1=C(O)C(=O)C(CC2=C(O)C(=O)C(CCCCCCCCCCCCC)=C(O)C2=O)=C(O)C1=O	inactive: > 100 µM
CCOc1c(Br)cc(Br)cc1C=C(C#N)C#N	inactive: > 10 µM
C=C1CC(C)(COc2cc(=O)oc3ccccc23)OC1=O (centres undefined)	inactive: 10 µM
COc1ccc2c(c1)[n+]([O-])c(C(=O)C/C(=N\NC(=O)C[N+](C)(C)C)C(=O)Nc1cc(Cl)ccc1Cl)c(C)[n+]2[O-]	inactive: > 100 µM
COc1cccc2c1N[S@](=O)S2	inactive: > 100 µM
Oc1c([Si](c2ccccc2)(c2ccccc2)c2ccccc2)cc2ccccc2c1-c1c(O)c([Si](c2ccccc2)(c2ccccc2)c2ccccc2)cc2ccccc12	inactive: > 100 µM
Cn1ncnc1CCc1ccccc1	inactive: > 100 µM
O=[N+]([O-])c1ccc(/N=N\c2c(O)ccc3ccccc23)c([N+](=O)[O-])c1	inactive: > 100 µM
COc1cc(Nc2cnc3ccc(N)cc3n2)cc(OC)c1OC	inactive: > 62.5 µM
ClC(Cl)=C1C(=C(Cl)Cl)C(Cl)(Cl)C1(Cl)Cl	inactive: 12.2 µM
C=C[C@@]1(O)CCCC[C@@H]1CC(Sc1ccccc1)Sc1ccccc1	inactive: 17.1 µM
COC1=CC(=O)c2c(c(-c3csc(C)n3)cn2C)C1=O	inactive: 8.75 µM
Cc1ccc(C)c(N2C(=O)C(=O)C(c3nc4ccccc4s3)C(=O)C2=O)c1	inactive: 71.8 µM
Clc1cccc(C2N3CCCCC3[C@@H]3c4[nH]c5ccccc5c4CCN23)c1 (some centres undefined)	inactive: 28.3 µM
CC(=O)N1C(OCc2ccccc2)CCN1c1ccccc1 (centres undefined)	inactive: > 10 µM
O=C(COc1ccc(Cl)cc1Cl)N/N=C/C=C/c1ccc([N+](=O)[O-])o1	inactive: 26.3 µM
Cc1cc(=O)c2cc(/N=C/c3ccc([N+](=O)[O-])o3)ccc2o1	inactive: > 100 µM

Compound	GI50
COc1ccc(/C=N/N=C(\N)NO)c(OC)c1	inactive: 49.1 µM
COc1ccc(C2=NN(c3ccccc3)C[N+](c3ccc(OC)cc3)=N2)cc1	inactive: 25.1 µM
Cn1cc(NC(=O)c2cc(NC(=O)Nc3cc(C(=O)Nc4cc(C(=O)NCCC(=N)N)n(C)c4)n(C)c3)cn2C)cc1C(=O)NCCC(=N)N	inactive: 48.8 µM
O=c1ccc2ccc(OP(=O)(O)O)cc2o1	inactive: > 100 µM
COc1ccc2nc3ccc(OC)cc3c([S+]([O-])Cc3ccc([N+](=O)[O-])cc3)c2c1 (centres undefined)	inactive: 18.6 µM
Cc1ccc(S(=O)(=O)C(CC(NC=O)S(=O)(=O)c2ccc(C)cc2)NC=O)cc1 (centres undefined)	inactive: > 100 µM
Cc1ccc(S(=O)(=O)OCC23CCC(C4CC42)C2CC23)cc1 (centres undefined)	inactive: > 100 µM
CC(=O)O[C@H]1CCC2[C@@H]3CCC4Nc5oncc5C[C@]4(C)C3CC[C@@]21C (some centres undefined)	inactive: > 10 µM
O=C(Cc1nc2ccccc2[nH]c1=O)c1c[nH]c2ccccc12	inactive: 36.4 µM
Cc1ccc(-c2cc(=O)c3cc(C)c(C)c(C(=O)O)c3o2)cc1	inactive: > 100 µM
COC(=O)c1cc(NC(=O)c2cc(NC(=O)Cc3c[nH]c4ccccc34)cn2C)cn1C	inactive: 17.8 µM
CC(=O)Oc1ccc2c(c1)[nH]c1c3ccc(OC(C)=O)cc3oc(=O)c21	inactive: 23.5 µM
COC(=O)CCC1CCc2c(OC)ccc(O)c2C1=O (centres undefined)	inactive: > 100 µM
CCOC(=O)N1N=NC2C3OC(C[C@@]3(C#N)OC(C)=O)[C@H]21 (some centres undefined)	inactive: > 100 µM
O=C1CCCCN1C(=O)c1ccc([N+](=O)[O-])cc1	inactive: > 100 µM
CC(=O)OC(/C=C/c1ccccc1)P1(=O)N(CC(C)(C)C)[C@@H]2CCCC[C@H]2N1CC(C)(C)C (some centres undefined)	inactive: 11.1 µM and inactive: 10.9 µM
C=C1C(=O)O[C@@H]2CC(CO)=C([C@@H](C)CCCO)[C@@H](OC(=O)/C(C)=C\C)[C@H]12	inactive: 26 µM
CC(C)C(=O)NC(=S)Nc1ccc([N+](=O)[O-])cc1C#N	inactive: > 100 µM
COc1ccc(Nc2nc3ccc(C(F)(F)F)cc3nc2C(=O)O)cc1OC	inactive: 36.8 µM
Cn1c2ccccc2c(=S)c2ccccc21	inactive: > 100 µM
CCC(=O)OCOc1ccc(/C=C2\CCC(CN(C)C)C2=O)cc1 (centres undefined)	inactive: 16.7 µM
CC(=O)c1ccc(NC(=O)C(=O)Nn2c(S)nc3ccccc3c2=O)cc1	inactive: > 100 µM

Values joined by “and” are separate entries in the source; they are usually repeats but may differ in a detail not shown here. Identical values can stand only once.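 Where inhibition never reached the appropriate level, the endpoint shown equals the highest concentration tested. Otherwise, values were interpolated linearly from a five-concentration, 48-hour dose response in 96-well plates. GI50 is the concentration that inhibits growth by half.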 Active and inactive are the calls of the source. Cut-off read from the data, not from the text of the source: active = GI50 up to about 1.1 µM and inactive = higher.
